In test [1] the target is T1, human CEACAM5 (carcinoembryonic antigen, CEA) on cells (human, UniProt P06731 35-685).
T1 sequence: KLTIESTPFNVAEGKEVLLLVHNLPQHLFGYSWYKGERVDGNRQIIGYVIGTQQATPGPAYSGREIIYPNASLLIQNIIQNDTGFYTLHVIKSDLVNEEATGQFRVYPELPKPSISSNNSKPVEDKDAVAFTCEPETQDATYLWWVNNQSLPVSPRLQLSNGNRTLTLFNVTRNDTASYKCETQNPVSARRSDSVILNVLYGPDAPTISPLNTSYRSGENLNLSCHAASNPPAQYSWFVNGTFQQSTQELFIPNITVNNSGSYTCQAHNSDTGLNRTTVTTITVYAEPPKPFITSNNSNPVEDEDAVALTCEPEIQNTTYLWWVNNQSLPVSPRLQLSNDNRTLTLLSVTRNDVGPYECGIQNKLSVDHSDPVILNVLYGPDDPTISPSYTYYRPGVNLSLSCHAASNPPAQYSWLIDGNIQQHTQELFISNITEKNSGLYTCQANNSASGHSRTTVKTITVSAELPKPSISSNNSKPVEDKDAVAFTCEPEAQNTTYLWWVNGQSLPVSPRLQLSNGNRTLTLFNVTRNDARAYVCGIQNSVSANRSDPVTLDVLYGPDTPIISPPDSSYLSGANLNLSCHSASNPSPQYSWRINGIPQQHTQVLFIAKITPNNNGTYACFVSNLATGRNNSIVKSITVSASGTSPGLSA
The experiment in a line: cell-based or functional assay. The arrangement: AUC of activation curve, Jurkat-hu4-1BB-NFκB-luc2, no CEA+ cells / AUC of activation curve, Jurkat-hu4-1BB-NFκB-luc2 with CHO-k1-cyno CEACAM5 clone 8: unit not given beside the values.

The target of test [2] is T2, cynomolgus monkey CEACAM5 on CHO-k1-cynoCEACAM5 clone 8 cells (cynomolgus monkey). Nature of the test: cell-based or functional assay. Also on record: AUC of activation curve, Jurkat-hu4-1BB-NFκB-luc2, no CEA+ cells / AUC of activation curve, Jurkat-hu4-1BB-NFκB-luc2 with CHO-k1-cyno CEACAM5 clone 8: unit not given beside the values.
Test [3] concerns the target human 4-1BB on Jurkat-hu4-1BB-NFκB-luc2 reporter cells (human, UniProt Q07011 24-255). The experiment in a line: cell-based or functional assay. The arrangement: AUC of activation curve, Jurkat-hu4-1BB-NFκB-luc2, no CEA+ cells / AUC of activation curve, Jurkat-hu4-1BB-NFκB-luc2 with CHO-k1-cyno CEACAM5 clone 8: unit not given beside the values.
Chain of UniProt Q07011 (Q07011 24-255 limits assumed): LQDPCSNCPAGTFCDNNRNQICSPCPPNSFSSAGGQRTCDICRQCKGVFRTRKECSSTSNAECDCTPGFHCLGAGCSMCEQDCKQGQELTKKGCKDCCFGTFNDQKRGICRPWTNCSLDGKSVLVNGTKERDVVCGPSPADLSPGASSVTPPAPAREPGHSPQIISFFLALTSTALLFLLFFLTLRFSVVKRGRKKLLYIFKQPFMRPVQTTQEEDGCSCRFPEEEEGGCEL
Test [4] addresses T1, human CEACAM5 (carcinoembryonic …). Nature of the test: flow cytometry, CHO-k1-huCEACAM5 clone 13. On the technique in general: Flow cytometry measures light scatter and fluorescence of single cells or particles in a stream.
The target is the same in test [5]. Nature of the test: cell-based or functional assay.
Test [6] deals with T2, cynomolgus monkey CEACAM5 on …. The experiment in a line: cell-based or functional assay.
Test [7] shares this target. The experiment in a line: flow cytometry, CHO-k1-cynoCEACAM5 clone 8.
Test [8] addresses T1, human CEACAM5 (carcinoembryonic …). The experiment in a line: flow cytometry, CHO-k1-huCEACAM5 clone 12. The arrangement: unit not given beside the values.
Test [9] deals with T2, cynomolgus monkey CEACAM5 on …. Nature of the test: flow cytometry, CHO-k1-cynoCEACAM5 clone 8. Also on record: unit not given beside the values.
Test [10] concerns the target T3, hu N(A2-B2)A-avi-His (human, biotin on the avi tag where used biotinylated).
T3 construct: chimeric soluble antigen; also called hu N(A2-B2)A-avi-His B; human CEA (A2 domain)
T3 chain: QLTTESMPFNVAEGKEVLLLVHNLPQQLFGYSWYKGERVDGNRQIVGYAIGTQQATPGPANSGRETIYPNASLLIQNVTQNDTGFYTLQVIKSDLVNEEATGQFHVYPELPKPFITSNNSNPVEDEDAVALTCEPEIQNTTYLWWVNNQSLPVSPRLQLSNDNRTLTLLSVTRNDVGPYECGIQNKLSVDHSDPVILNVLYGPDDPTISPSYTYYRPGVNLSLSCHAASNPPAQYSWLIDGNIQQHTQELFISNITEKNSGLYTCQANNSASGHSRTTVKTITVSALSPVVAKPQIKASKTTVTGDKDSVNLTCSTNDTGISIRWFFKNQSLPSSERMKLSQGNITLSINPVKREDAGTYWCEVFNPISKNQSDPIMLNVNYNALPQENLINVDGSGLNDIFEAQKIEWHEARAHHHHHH
Nature of the test: SPR (Biacore T200), huN(A2-B2)A immobilised on a CM5 chip, construct injected as analyte 1. Here is the method:
All SPR experiments were performed on a Biacore T200 at 25° C. with HBS-EP as running buffer (0.01 M HEPES pH 7.4, 0.15 M NaCl, 3 mM EDTA, 0.005% Surfactant P20, Biacore, Freiburg/Germany).
Bulk refractive index differences were corrected for by subtracting the response obtained in a reference flow cell, where no protein was immobilized.

Test [11] deals with T1, human CEACAM5 (carcinoembryonic …). Nature of the test: flow cytometry, CHO-k1-huCEACAM5 clone 13. The arrangement: unit not given beside the values.
For test [12] the target is unchanged. Nature of the test: flow cytometry, CHO-k1-huCEACAM5 clone 12.
Test [13] shares this target. The experiment in a line: flow cytometry, CHO-k1-huCEACAM5 clone 12. Also on record: unit not given beside the values. The source holds these as a separate data set.
Test [14] shares this target. Nature of the test: flow cytometry, CHO-k1-huCEACAM5 clone 17.
For test [15] the target is unchanged. The experiment in a line: flow cytometry, CHO-k1-huCEACAM5 clone 11. The arrangement: unit not given beside the values.
The target is the same in test [16]. Nature of the test: flow cytometry, CHO-k1-huCEACAM5 clone 11. Also on record: unit not given beside the values. This is another data set of the same source.
Test [17] has the same target. Nature of the test: flow cytometry, CHO-k1-huCEACAM5 clone 17. Also on record: unit not given beside the values.
For test [18] the target is unchanged. Nature of the test: flow cytometry, CHO-k1-huCEACAM5 clone 11.
Test [19] has as its target T2, cynomolgus monkey CEACAM5 on …. The experiment in a line: flow cytometry, CHO-k1-cynoCEACAM5 clone 8. Also on record: unit not given beside the values. The source holds these as a separate data set.
Test [20] deals with T1, human CEACAM5 (carcinoembryonic …). The experiment in a line: flow cytometry, CHO-k1-huCEACAM5 clone 12. The source holds these as a separate data set.
Test [21] shares this target. The experiment in a line: flow cytometry, CHO-k1-huCEACAM5 clone 11. This is another data set of the same source.
The target of test [22] is T2, cynomolgus monkey CEACAM5 on …. The experiment in a line: flow cytometry, CHO-k1-cynoCEACAM5 clone 8. This is another data set of the same source.

Like-named read-outs stand apart in the source and are kept apart here.

B1: CEA(A5B7)-4-1BBL (Fc fusion)
chain 1: REGPELSPDDPAGLLDLRQGMFAQLVAQNVLLIDGPLSWYSDPGLAGVSLTGGLSYKEDTKELVVAKAGVYYVFFQLELRRVVAGEGSGSVSLALHLQPLRSAAGAAALALTVDLPPASSEARNSAFGFQGRLLHLSAGQRLGVHLHTEARARHAWQLTQGATVLGLFRVTPEIPAGLGGGGSGGGGSREGPELSPDDPAGLLDLRQGMFAQLVAQNVLLIDGPLSWYSDPGLAGVSLTGGLSYKEDTKELVVAKAGVYYVFFQLELRRVVAGEGSGSVSLALHLQPLRSAAGAAALALTVDLPPASSEARNSAFGFQGRLLHLSAGQRLGVHLHTEARARHAWQLTQGATVLGLFRVTPEIPAGLGGGGSGGGGSRTVAAPSVFIFPPSDRKLKSGTASVVCLLNNFYPREAKVQWKVDNALQSGNSQESVTEQDSKDSTYSLSSTLTLSKADYEKHKVYACEVTHQGLSSPVTKSFNRGE[human IgG1 Fc with changes not spelt out]
chain 2: REGPELSPDDPAGLLDLRQGMFAQLVAQNVLLIDGPLSWYSDPGLAGVSLTGGLSYKEDTKELVVAKAGVYYVFFQLELRRVVAGEGSGSVSLALHLQPLRSAAGAAALALTVDLPPASSEARNSAFGFQGRLLHLSAGQRLGVHLHTEARARHAWQLTQGATVLGLFRVTPEIPAGLGGGGSGGGGSASTKGPSVFPLAPSSKSTSGGTAALGCLVEDYFPEPVTVSWNSGALTSGVHTFPAVLQSSGLYSLSSVVTVPSSSLGTQTYICNVNHKPSNTKVDEKVEPKSC
heavy: EVKLVESGGGLVQPGGSLRLSCATSGFTFTDYYMNWVRQPPGKALEWLGFIGNKANGYTTEYSASVKGRFTISRDKSQSILYLQMNTLRAEDSATYYCTRDRGLRFYFDYWGQGTTLTVSSASTKGPSVFPLAPSSKSTSGGTAALGCLVKDYFPEPVTVSWNSGALTSGVHTFPAVLQSSGLYSLSSVVTVPSSSLGTQTYICNVNHKPSNTKVDKKVEPKSCDKTHTCPPCPAPEAAGGPSVFLFPPKPKDTLMISRTPEVTCVVVDVSHEDPEVKFNWYVDGVEVHNAKTKPREEQYNSTYRVVSVLTVLHQDWLNGKEYKCKVSNKALGAPIEKTISKAKGQPREPQVCTLPPSRDELTKNQVSLSCAVKGFYPSDIAVEWESNGQPENNYKTTPPVLDSDGSFFLVSKLTVDKSRWQQGNVFSCSVMHEALHNHYTQKSLSLSP
light: QTVLSQSPAILSASPGEKVTMTCRASSSVTYIHWYQQKPGSSPKSWIYATSNLASGVPARFSGSGSGTSYSLTISRVEAEDAATYYCQHWSSKPPTFGGGTKLEIKRTVAAPSVFIFPPSDEQLKSGTASVVCLLNNFYPREAKVQWKVDNALQSGNSQESVTEQDSKDSTYSLSSTLTLSKADYEKHKVYACEVTHQGLSSPVTKSFNRGEC
notes: anti-CEA Fc hole chain and light chain; P329G LALA
Regarding B1, the “AUC of activation curve, Jurkat-hu4-1BB-NFκB-luc2 with CHO-k1-human CEACAM5 clone 11” value in [1] was determined as 146000. In addition, the “AUC of activation curve, Jurkat-hu4-1BB-NFκB-luc2 with CHO-k1-human CEACAM5 clone 12” value in [1] came out at 137000. Besides, the “AUC of activation curve, Jurkat-hu4-1BB-NFκB-luc2 with CHO-k1-cyno CEACAM5 clone 8” value in test [2] came to 88700. Moreover, the “AUC of activation curve, Jurkat-hu4-1BB-NFκB-luc2, no CEA+ cells” value in test [3] came to 2040. The EC50 (usually the concentration needed to bring the measured effect to its halfway point) was determined as 15.2 nM in [4]; 41.9 nM in [7]; 21.7 nM in [12]; 7.38 nM in test [14]; 10 nM in test [18]; 11 nM in test [20]. Also, the results for the EC50 in test [21] and in test [22] were 31.1 nM and 31.4 nM, respectively. Further, the “EC50, NFκB-luciferase in Jurkat-hu4-1BB-NFκB-luc2 with CHO-k1-human CEACAM5 clone 11” value in test [5] was found to be 0.12 nM. In addition, the “EC50, NFκB-luciferase in Jurkat-hu4-1BB-NFκB-luc2 with CHO-k1-human CEACAM5 clone 12” value in [5] amounted to 0.08 nM. Moreover, in [6], the “EC50, NFκB-luciferase in Jurkat-hu4-1BB-NFκB-luc2 with CHO-k1-cyno CEACAM5 clone 8” value amounted to 0.17 nM. Further, the AUC came to 55700 in [8]; 15600 in [9]; 98400 in test [11]; 7900 in test [13]; 15000 in [15]; 3010 in [16]. Also, the AUC was found to be 16300 in test [17] and 2140 in [19]. Moreover, the binding result in test [10] is reported as “binds”.
